Structures are written as SMILES. In all, about 50,000 compounds went through this assay and about 800 (1.6%) showed an effect of 50% or more. Some of the results follow.

The record followed here is PubChem BioAssay AID1240 (Sanford-Burnham Center for Chemical Genomics, 2008).

For the experiment, the target named is Bcl-2-like protein 10 (Homo sapiens) (UniProt Q9HD36). Briefly: TR3 peptide-Bcl-B binding displacers, biochemical primary FP assay, phenotype converters (AID 1240).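 Also: 0% = Bcl-B with tracer peptide and DMSO and 100% = tracer peptide lacking Bcl-B.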 To be noted: GST-Bcl-B / FITC-TR3 peptide fluorescence polarization; stronger effect = higher value; compound at 3.75 mg/L. (Fluorescence polarisation rises when a labelled molecule tumbles more slowly, as on binding a larger partner.)
Chain of UniProt Q9HD36 (Q9HD36 whole entry, looked up): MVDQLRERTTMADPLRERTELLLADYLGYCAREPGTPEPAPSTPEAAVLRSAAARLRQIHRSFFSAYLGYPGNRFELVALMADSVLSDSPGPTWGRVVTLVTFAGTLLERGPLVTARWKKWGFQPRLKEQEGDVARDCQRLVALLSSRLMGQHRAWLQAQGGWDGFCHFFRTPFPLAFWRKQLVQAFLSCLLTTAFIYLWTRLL
For `COc1ccc(NC(=O)C(=O)NCc2ccccc2Cl)cc1`, the displacement was 10.1%.

Consider `COc1ccc(/C=C/C(=O)NCCSCc2ccccc2)cc1OC`, for which the displacement is -5.8%.

On to `Cc1ccccc1N1C(=O)c2cccc3c(N4CCCCC4)ccc(c23)C1=O`, for which the displacement is 15.9%.

For `CCOC(=O)C1=C(C)N=c2s/c(=C\c3ccc(OC)c(OC)c3OC)c(=O)n2C1c1ccccc1` (stereo not drawn), the displacement came out at 210%.

In the case of `COc1ccccc1CNC(=O)C(=O)Nc1cccc(C(F)(F)F)c1`, the displacement is 3.9%.

On to `Oc1cccc(/C=N/Nc2nc3ccccc3s2)c1`, for which the displacement is -17%.

For the compound `COc1ccccc1/C=C1\SC(=S)N(NC(=O)c2cccnc2)C1=O`, the displacement came out at 1.5%.

Turning to `O=C(COc1ccc2ccccc2c1)N1CCN(c2ccccc2)CC1`, the displacement was -10.1%.

Turning to `CCCC(=O)Nc1sc(C)c(C)c1C(=O)Nc1ccccc1OC`, the displacement is -5.6%.

With `O=C(Nc1ccc(F)c(F)c1)C1CC1c1ccccc1` (stereo not drawn), the displacement is -0.1%.

With `Cc1ccc(/C=C2\SC(N3CCC(C)CC3)=NC2=O)o1`, the displacement amounted to 6.7%.

With `COc1ccc(OC)c2c1C(=O)c1ccccc1C2=O`, the displacement came out at 101%.

In the case of `CCOC(=O)CC(=O)CSc1nccc(N(C)C)c1C#N`, the displacement stood at 1.7%.

On to `O=C(CCCCC(=O)NN=Cc1ccncc1)NN=Cc1ccncc1`, for which the displacement was found to be 7.3%.

Consider `Cc1cc(OCC(=O)Nc2c(C)ccc3nsnc23)cc(C)c1Cl`, for which the displacement is 32.2%.

Consider `COc1ccc(/C=C/C(=O)/C=C/c2ccc(N(C)C)cc2)cc1`, for which the displacement was -3%.

Regarding `O=C(Nc1ccc(F)cc1)/C(=C\c1ccc(Br)cc1)NC(=O)c1ccccc1F`, the displacement was -10.9%.

Take `O=C(NCCOCc1ccccc1)c1ccccc1Br`: the displacement is -6.8%.

As for `O=C1/C(=C/c2ccc([N+](=O)[O-])cc2)SC(=S)N1c1ccc(F)cc1`, the displacement is 5.2%.

`CCCCOC(=O)COc1cc2oc(=O)c3c(c2cc1Cl)CCC3`: the displacement came out at 6.3%.

For `O=C(ON=C1c2ccccc2-c2ccccc21)c1ccc(Cl)cc1Cl`, the displacement was determined as 13.1%.

For the compound `O=C(CCc1ccccc1O)N/N=C/c1ccc(Sc2cccc3cccnc23)o1`, the displacement worked out at 7.2%.

In the case of `CCOc1ccc(N2C(=O)NC(=O)/C(=C\c3ccc(I)o3)C2=O)cc1`, the displacement was determined as 2.7%.

With `COC(=O)c1sccc1NC(=O)c1c(-c2c(Cl)cccc2Cl)noc1C`, the displacement came to 15%.

As for `CCc1cc(C(=O)N/N=C/c2ccc(O)cc2O)c2ccccc2n1`, the displacement was -16.7%.

On to `N#C/C(=C\c1ccc(-c2ccc(Br)cc2)o1)c1nc2ccccc2[nH]1`, for which the displacement was found to be 2.1%.

As for `Cc1cc(OCC(=O)NCc2ccncc2)ccc1Br`, the displacement was 7.4%.

Consider `O=S(=O)(Oc1ccc2ccccc2c1)c1ccc(F)cc1`, for which the displacement was determined as 8.2%.

Consider `CCCC(=O)NC(c1ccc(OC)c(OC)c1)c1c(OC(=O)COc2ccccc2)ccc2ccccc12` (stereo not drawn), for which the displacement was 7.4%.

As to `O=C(COc1ccc2ccccc2c1)Nc1ccc(N2CCOCC2)c(Cl)c1`, the displacement is -2.7%.

Take `CC(C)C1=NN(C(=O)c2ccccc2)C(O)(C(C)(C)C)C1` (stereo not drawn): the displacement was 7.9%.

Turning to `COc1ccc(OC)c(NC(=O)c2ccc(OC)cc2OC)c1`, the displacement is -1.9%.

`O=C(Nc1ccc(NC(=O)c2cccc(Br)c2)cc1)c1ccccc1`: the displacement came out at 0%.

In the case of `CCOC(=O)c1c(NC(=O)Cc2ccc(OC)cc2)sc(C(=O)Nc2ccccc2)c1C`, the displacement is -8.3%.

`CC(=O)Nc1ccc(S(=O)(=O)N(Cc2ccccc2)c2ccccn2)cc1`: the displacement amounted to 3.8%.

Regarding `COc1cc(C=C2C(=O)N(c3ccc(C)cc3)C(=S)N(c3ccc(C)cc3)C2=O)ccc1O`, the displacement was determined as 9%.

On to `CC1SC(c2ccc(OCc3ccccc3)cc2)NC1=O` (stereo not drawn), for which the displacement was -9.7%.

As to `Cc1cccc(C(=O)NNC(=O)COc2ccccc2Cl)c1O`, the displacement is -3.3%.

In the case of `O=C1CC(N2CCN(c3ccccc3F)CC2)C(=O)N1c1cccc(Cl)c1` (stereo not drawn), the displacement was -7.4%.

In the case of `CCOc1ccc(S(=O)(=O)n2ccnc2C(C)C)c2ccccc12`, the displacement is 13%.

For `Cc1ccc(NC(=O)C(=O)NCC(C)C)c(C)c1`, the displacement is 13.5%.

Consider `COc1cc(S(=O)(=O)n2ccnc2C)c(OC)cc1Cl`, for which the displacement worked out at 2.2%.

As to `CC(=O)c1ccc(NC(=O)CSC(N)=O)cc1`, the displacement came to 3.5%.

`C=CCNC(=O)CN(c1ccc(OC)c(Cl)c1)S(C)(=O)=O`: the displacement was -4.4%.

As for `O=C1CSC(=O)N1CNc1ccccc1Cl`, the displacement was determined as 15%.

As to `CC1=C(C(=O)OCCc2ccccc2)C(c2ccccc2OCc2ccccc2)C2=C(CCCC2=O)N1` (stereo not drawn), the displacement is -6%.

For the compound `COC(=O)C1=C(C)NC2=C(C(=O)CC(c3ccccc3)C2)C1c1ccccc1` (stereo not drawn), the displacement came to 3.3%.

With `COC(=O)c1c(C)oc2ccc(OCc3cccc(F)c3)cc12`, the displacement turned out to be 9.8%.

As to `Cc1ccc(C(=O)Nc2ccc(-c3nc4ncccc4o3)cc2)cc1C`, the displacement came to 21.5%.

In the case of `CS(=O)(=O)N1CCN(c2ccc(Cl)cc2[N+](=O)[O-])CC1`, the displacement was -2.7%.

Turning to `O=C(N/N=C/c1cc([N+](=O)[O-])c(N2CCOCC2)cc1N1CCOCC1)Nc1ccccc1`, the displacement is -3.3%.

In the case of `COc1ccc(C(=O)Nc2ccc(-c3ccc(NC(=O)c4ccc(OC)cc4)c(OC)c3)cc2OC)cc1`, the displacement came to 13.8%.

For the compound `COc1ccccc1NC(=O)C1=C(C)NC(=S)NC1c1ccccc1OC` (stereo not drawn), the displacement is 6%.

For the compound `CCOC(=O)N1CCN(C(=O)COc2ccc(Cl)cc2Br)CC1`, the displacement is -2.4%.

With `Cc1ccc(SCCc2nnc(N)s2)cc1`, the displacement turned out to be 2.5%.

Turning to `COc1cc(/C=C2\SC(N)=NC2=O)cc(Br)c1OCc1cccc2ccccc12`, the displacement is -62.1%.

As to `Cc1ccc(N2C(=O)C(Cl)=C(Nc3cccc(C)c3C)C2=O)cc1`, the displacement is -5%.

For `COc1cc(C(=O)Nc2c(C(C)C)cccc2C(C)C)cc(OC)c1OC`, the displacement is -2%.

As to `Cc1ccc(-c2csc(/C(C#N)=C/c3sccc3C)n2)c(C)c1`, the displacement came to 69.3%.

Turning to `O=[N+]([O-])c1ccccc1C=NCCC12CC3CC(CC(C3)C1)C2`, the displacement worked out at 5.1%.

As to `O=C1Nc2c(S(=O)(=O)N3CCOCC3)cc(S(=O)(=O)N3CCOCC3)c3cccc1c23`, the displacement is -0.3%.

Take `O=C(CSc1ncn[nH]1)NC(c1ccccc1)c1ccccc1`: the displacement is 10.6%.

On to `c1ccc(-c2nnc(N3CCOCC3)c3ccccc23)cc1`, for which the displacement was -3.6%.

For `CCCOc1ccccc1/C=C1\N=C(c2ccccc2)OC1=O`, the displacement was 64%.

For the compound `CCOC(=O)c1[nH]cnc1C(=O)N1CCCCC1`, the displacement turned out to be 14.5%.

On to `CCOc1cc(/C=N/NC(=O)c2cc(C)[nH]n2)ccc1OC(=O)c1cccc2ccccc12`, for which the displacement is -17.8%.

For `O=C1NC(=O)N(c2ccccc2)C(=O)/C1=C\c1ccccc1OCc1ccc(F)cc1`, the displacement was -16.6%.

`Cc1cc(NC(=O)c2ccc(I)cc2)ccc1NC(=O)c1ccccc1`: the displacement came to 2.6%.

`CCC1=NN(C(=O)Cc2ccc(OC)cc2)C(O)(c2ccncc2)C1` (stereo not drawn): the displacement is -8.9%.

As to `COc1ccc(C(=O)Nc2ccc(NC(=O)c3cc4ccccc4o3)c(OC)c2)cc1Br`, the displacement was -2.8%.

Take `Cc1ccc(C)n1-n1cnc2scc(-c3ccccc3)c2c1=O`: the displacement came to 25.2%.

For `CCOC(=O)c1c(C)oc2cc(Br)c(OC(=O)c3ccc([N+](=O)[O-])cc3)cc12`, the displacement stood at 8.5%.

Take `COc1ccc(Cc2noc(COc3ccc(Cl)cc3)n2)cc1`: the displacement is 2.7%.

Turning to `O=C(O)CCC(=O)N1N=C(c2c(-c3ccccc3)c3cc(Cl)ccc3[nH]c2=O)CC1c1ccccc1` (stereo not drawn), the displacement was -2.6%.

With `O=C(Nc1c(C(=O)N2CCCCC2)cnn1-c1ccccc1)c1cccc(F)c1`, the displacement is 0.8%.

Regarding `CCOC(=O)C1=C(C)N(CCOC)C(=O)/C1=C\c1sccc1C`, the displacement worked out at 11.3%.

For the compound `COc1ccc(OC)c(C2NC(=O)NC(C)=C2C(=O)Nc2ccc(C)cc2)c1` (stereo not drawn), the displacement was -1.4%.

On to `COc1ccc(OC)c(NC(=O)c2c(C)c(-c3ccccc3)nc3ccccc23)c1`, for which the displacement is 2.7%.

Turning to `CCC(C)c1ccc(OCCOc2c(Cl)cc(/C=N/n3cnnc3)cc2OC)cc1` (stereo not drawn), the displacement was -12.9%.

Turning to `COC(=O)CNC(=O)Cc1ccccc1[N+](=O)[O-]`, the displacement was 2.1%.

On to `CCOC(=O)c1ccccc1N/C=C(\C#N)C(=O)NCc1ccccc1`, for which the displacement amounted to 10.1%.

In the case of `COc1ccccc1-n1cnc2cc(Nc3nnc(C)c4ccccc34)ccc21`, the displacement came out at 7.8%.

With `Cn1cnc2c1c(=O)n(Cc1ccc(Br)cc1)c(=O)n2C`, the displacement was -2%.

With `COC(=O)c1sc(NC(=O)COc2ccc3ccccc3c2)c(C(N)=O)c1C`, the displacement is -1.6%.

As for `O=C(NCc1ccccn1)c1ccc(I)cc1`, the displacement stood at 11.4%.

For `C/C(=N\Nc1nc(-c2ccccc2)nc(C)c1C)c1ccc(Br)cc1`, the displacement was -10.3%.

As to `O=C(c1ccc(S(=O)(=O)N2CCOCC2)cc1)N1CCN(CCN2C(=O)c3cccc4cccc(c34)C2=O)CC1`, the displacement came to 7.2%.

As for `CCN1C(=O)/C(=C\c2ccc(-c3ccc(OC)c(Cl)c3)o2)SC1=S`, the displacement was determined as 16.1%.

Regarding `COc1ccc(-c2ccc(/C=C/C(=O)O)o2)cc1`, the displacement came to 0.6%.

For the compound `O=C(c1ccc(Cl)cc1)N(c1ccccc1)C1C=CS(=O)(=O)C1` (stereo not drawn), the displacement is -3%.

For `O=C1NN(c2ccccc2)C(=O)/C1=C/c1cccc(Cl)c1`, the displacement is -14%.

Turning to `O=C(CCNc1ccc(I)cc1)c1cccs1`, the displacement is -12.3%.

For `CCOc1ccccc1CN(CCc1ccc2c(c1)OCO2)Cc1cc(OC)ccc1OC`, the displacement is -7.2%.

Consider `O=C(Nc1ccc(Cl)c(Cl)c1)c1cc2cc(Br)ccc2oc1=O`, for which the displacement is -8.9%.

`N#Cc1c(NC(=O)C2c3ccccc3Oc3ccccc32)sc2c1CCCCC2`: the displacement came to 9.4%.

On to `O=S(=O)(Cc1ccccc1)NCCOc1ccc(Cl)cc1`, for which the displacement was -5.2%.

For the compound `CC1CCN(Cn2[nH]c(=O)ccc2=O)CC1`, the displacement was 10.1%.

As to `Cc1[nH]n(-c2ccccc2)c(=O)c1C=Nc1ccc(Cl)cc1Cl`, the displacement is -4.3%.

Regarding `COC(=O)c1ccccc1NC(=O)COc1cccc2ccccc12`, the displacement was -2.6%.

`Cc1cccc(Cc2cnc(NC(=O)CCCN3C(=O)/C(=C/c4ccccc4)SC3=S)s2)c1`: the displacement came to 6.9%.

`COc1ccc(N=C2NC(=O)/C(=C\C=C\c3ccccc3)S2)cc1`: the displacement is -1.3%.

Regarding `COCCOC(=O)C1=C(C)NC2=C(C(=O)CC(C)(C)C2)C1c1ccc(Cl)cc1Cl` (stereo not drawn), the displacement amounted to 1.9%.

Turning to `COc1ccc(-c2cc(C(F)(F)F)n3nc(C(=O)N4CCc5ccccc5C4)cc3n2)cc1`, the displacement came to 12.7%.

Turning to `COc1ccc(-c2cc(C(=O)Nc3ccccc3C)c3ccccc3n2)cc1`, the displacement stood at 11.2%.

Regarding `Cc1cc(N2CCN(C3=NCC(C)(C)S3)CC2)n2c(nc3ccccc32)c1C#N`, the displacement worked out at 1.7%.

Take `O=C(c1cc(F)c(F)cc1Cl)N1CCN(c2ccc([N+](=O)[O-])c3ncccc23)CC1`: the displacement is 7.8%.

As for `O=C(Nc1cccc2nsnc12)c1ccc2c(c1)OCCO2`, the displacement was 12.3%.

Turning to `COc1ccc(NS(=O)(=O)c2ccc(OC)c(OC)c2)cc1OC`, the displacement worked out at 8.6%.
